Drawing on the RNAGym collection of RNA variant scans (doi:10.7554/elife.90254), this text covers self-cleavage for 21 variants.

The source gives no read counts; variants with many changes may rest on few reads.

The labels stand for the following.
B1: OR4K15 (parent)
chain: GUUAACGGUCAUAGGCCAUGGAAACUAGGAGCACCAUUUCGCUGCCAGUGAAGAAAUGAACAAAGAAAAUCUGGGCCAGGCAGGCAUCAAAAGAAAUAGUCUUGCGCUCAACCAGAAAGUCUGUAAUCAUUUUAAGGGUA

In this data set the parent is B1. Kind of data set: self-cleavage, relative activity (ratio to wild type); higher = more cleavage; in vitro, sequencing; the parent is a self-cleaving ribozyme.
For GUUAACAGUCAUAGGCCAUGGAAACUAGGAGCACCAUUUCGCUGCCAGUGAAGAGAUGAACAAAGAAAAUCUGGGCCAGGCAGGCGACAAAAGAAGUAGUCUCGCGCUCAACCAGAAAGUCUGUAAUCAUUUUAAGGGUA, the self-cleavage amounted to 0.75.

Regarding GUUAACAGUCAUAGGCCUUGGAAACUAGGAGCACCAUUUCGCUGCCAGUGAAGAAAUGAACAAAGAAAAUCUGGGCCAGGCAGGCAUCAAAAGAAAUAGUCUUGCGCUCAACCAGAAAGUCCGUAAUCAUUUUAAGGGUA, the self-cleavage was determined as 0.61.

With GUUAAUGGUCAUAGGCCAUGGAAACUAGGAGCACCAUUUCGCUGCCAGUGAAGAAAUGAACAAAGAAAAACUGGGCCAGGCAGGCAUCAAAAGAAACAGUCUUGCGCUCAACCAGAAAGUCUGUAAUCAUUUUAAGGGUA, the self-cleavage was determined as 0.56.

In the case of GUUAAUGGCCAUAGGCCAUGGAAACUAGGAGCACCAUUUCGCUGCCAGUGAAGAAAUGAACAAAGAAAAUCUGGGCCAGGCAGGCAUCAAGAGAAAUAGUCUUGCGCUCAACCAGAAAGUCUGUAAUCAUUUUAAGGGUA, the self-cleavage is 0.47.

As for GUUAAUGGUCAUAGGCCAUGGAAACUAGGAGCACCACUUCGCUGCCAGUGAAGAAAUGAACAAAGAAAAUCUGGGCCAGGCAGGCAUCAAAAGAAAUAGUCUUGCGCUCAACCAGAAAGUCUGUAAUCAUUCUAAGGGUA, the self-cleavage is 1.42.

GUUAACAGUCAUAGGCCAUGGAAGCUAGGAGCACCAUUUCGCUGCCAGUGAAGAAAUGAACAAAGAAAAUCUGGGCCAGGCAGGCAUCAAAAGAAAUAGUCUUGCGCUCUACCAGAAAGUCUGUAAUAAUUUUAAGGGUA: the self-cleavage turned out to be 0.58.

Regarding GUUAACAGUCAUAGGCCUUGGAAACUAGGAGCACCAUUUCGCUGCCAGUGAAGAAAUGAACAAAGAAAAUCUGGGCCAGGCAGGCAUCAAGAGAAAUAGUCUUGCGCUCAACCAGGAAGUCUGUAAUCAUUUUAAGGGUA, the self-cleavage was 0.83.

Consider GUUAAUGGCCAUAGGCCAUGGAAACUAGGAGCACCAUUUCGCUGCCAGUGAAGAAAUGAACAAAGAAAAUCUGGGCCAGGCAGGCAUCAAAAGAAAUAGCCUUGCGCUCAACCAGAAAGUCUGUAAUCAUUUCAAGGGUA, for which the self-cleavage was 1.52.

Turning to GUUAACAGUCGUAGGCCAUGGAUACUAGGAGCACCAUUUCGCUGCCAGUGAAGAAAUGAACAAAGAAAAUCAGGGCCAGGCAGGCAUCAAAAGAAAUAGUCUUGCGCUCAACCAGAAAGUCCGUAAUCAUUUUAAGGGUA, the self-cleavage came out at 0.19.

Turning to GUUAACAGUCAUAGGCCAUGGAAACUAGGAGCACCAUUUCGCUGCCGGUGAAGAAAUGAACAAAGAAAAUCUGGGCCAGGCAGGCAACGAAAGAAAUAGUCUUGCGCUCAACCAGAAAGUCAGUAAUCAUUUUAAGGGUA, the self-cleavage was 0.7.

Turning to GUUAACAGUCAUAGGCCCUGGAAACUAGGAGCACCAUUUCGCUGCCAGUGAAGAAAUGAACAAAGAAGAUCUGGGCCAGGCAGGCAUCAAAAGAAAUAGUCUUGCGCUCUACCAGAAAGUCUGUAAUCAUUUUAAGGGUA, the self-cleavage amounted to 0.96.

Consider GUUAAUGGUCAUAGGCCAUGGAAACUAGGAGCACCAUUUCGCCGCCAGUGAAGAAAUGAACAAAGAAAAUCUGGGCCAGGCAGGCAUCUAAAGAAAUAGUCUUGCGCUCAACCAGAAAGCCUGUAAUCAUUUUAAGGGUA, for which the self-cleavage was 0.91.

On to GUUAAUGGUCAUAGGCCAUGGAAACCAGGAGCACCAUUUCGCUGCCAGUGAAGAAACGAACAAAGAAAAUCUGGGCCAGGCAGGCAUCAAAAGAAAUAGUCUUGCGCUCAACCAGAAAGUCUGUAAUCAUUUUAAGGGUA, for which the self-cleavage turned out to be 0.98.

Take GUUAACAGUCAUAGGCCAUGGAAACUAGGAGCACCAUUUCGCUGCCAGUGAAGGAAUGAACAAUGAAAAUCUGGGCCAGGCAGGCAUCAAAAGAAAUAGUCUUGCGCUCAACCAGAAAGUCAGUAAUCAUUUUAAGGGUA: the self-cleavage was determined as 0.28.

Turning to GUUAACAGUCAUAGGCCAUGGAAACUAGGAGCACCGUUUCGCUGCCAGUGAAGAAAUGAGCAAAGAAAACCUGGGCCAGGCAGGCAUCAAAAGAAAUAGUCUUGCGCUCAACCGGAAAGUCUGUAAUCAUUUUAAGGGUA, the self-cleavage was 0.06.

For GUUAACAGUCAUAGGCCAUGGAAACUAGGAGCACCAUUUCGCUGCCAGUGAAGAAAUGGACAAAGAAACUCUGGGCCAGGCAGGCAUCAAAAGAAGUAGUCUUGCGCUCAACCAGAAAGUCUGUAAUCAUUUUAAGGGUA, the self-cleavage amounted to 0.35.

Take GUUAACAGUCAUAGGCCAUGGAAACUAGGAGCACCAUUUCGCUGCCAGUGAAGAAAUGAUCAAAGAAAAUCUGGGCCAGGCAGGCAUCAAAAGAAAUAGUCUUGCGCUCAACCAGAAAGUCUGUAACCAUCUUAAGGGUA: the self-cleavage turned out to be 1.63.

Consider GUUAACAGUCAUAGGCCAUGGGAACUAGGAGCACCAUUUCGCUGCCAGUGAAGAAAUGAACAAAGAAAAUCUGGGCCAGGCAGGCAUCAAAAGAGAUAGUCUUGCGCUCAACCAGAAAGUCUGUAAUCAUUUUAAGGGUA, for which the self-cleavage came to 1.62.

With GUUAAUGGUCAUAGGCCAUGGAAACUAGGAGCACCAUUUCGCUGCCAGAGGAGAAAUGAACAAAGUAAAUCUGGGCCUGGCAGGCAUCAAAGGAAAUAGUCUUGCGCUCAACCAGAAAGUCUGUAAUCAUUUUAAGGGUA, the self-cleavage came to 0.48.

For the variant GUUAACAGUCAUAGGCCAUGGAGACUAGGAGCACCAUUUCGCUACCAGUGAAGAAAUGAACAAAGAAAAUCUGGGCCAGGCAGGCAUCAAAAGAAAUAGUCUUGCGCUCGACCAGAAGGUCUGUAAUCACUUUAAGGGUA, the self-cleavage is 0.04.

With GUUAACAGUCAUGGGCCAUGGAAACUAGGAGCACCAUUUCGCUGCCAGUGAAGAAAUGACCAAAGAAAAUCUGGGCCAGGCAGGCAUCAAAAGAAAUAGUCUUGCGCUCAACCAGAAAGUCUGUAAUCAUUUUAAGGGUA, the self-cleavage is 1.42.
